Broadly, the pIC50 is the negative decadic logarithm of the IC50, by convention in mol/L.

pIC50: −log10 of the molar value. The IC50 comes from the fitted curve, where viability falls to half of the control; fits outside the tested doses are given as limits. For AUC the same curve is integrated over the 256-fold range of doses and scaled to a fraction; the more sensitive the line, the further below 1. Where the top dose is marked as inferred, it was calculated from the reported fits. For some of these results: Where an entry number is given, a second screen of the drug exists; the two often differ.

Compound in the first test: CCNc1cc(NC2CCC(O)CC2)nc(Nc2ccc3c(ccn3Cc3ccccc3)c2)n1 [CGP-082996 (CINK4)]
Kind of test: Viability of human cancer cell lines after 72 h of drug (GDSC screen). As to conditions: top dose 5.12 µM; top dose inferred. How it is done:
(§1)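 Human cancer cell lines in 384-well plates, medium with 10% serum, drug for 72 h over a 256-fold dose range (nine 2-fold or five 4-fold steps up to the top dose). Adherent lines were fixed and stained with the nucleic acid dye Syto60, suspension lines read with resazurin; signal relative to control wells, capped at 0 and 100%. One two-parameter sigmoid per drug and line, fitted in a mixed model over all curves with the slope shared within a line.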
With LS-123 (large intestine, adherent), the AUC is 0.865 and the negative logarithm of the IC50 (pIC50) was less than 5.29.
On the same counts, the results for NCI-H716 (large intestine, suspension) are 0.98 and less than 5.29.
On the same counts, the results for NTERA-2 cl.D1 (testis, adherent) are 0.893 and less than 5.29.
Taken in the same sequence, the figures for “PL-21 (acute myeloid leukaemia, suspension)” were 0.965 and less than 5.29.
Regarding SK-N-DZ (neuroblastoma, adherent), the AUC was 0.952 and the negative-log IC50 (pIC50) is less than 5.29.
Taken in the same sequence, the figures for SW872 (soft tissue, adherent) were 0.954 and less than 5.29.
On the same counts, the results for no-10 (glioma, adherent) are 0.811 and 5.45.

Compound in a further test: COc1cc(N2CCN(C)CC2)ccc1Nc1ncc2c(n1)N(C)c1ccccc1C(=O)N2C [XMD8-85]
The description is as above. The conditions noted are these: top dose 8 µM; top dose inferred. How it is done:
as §1
BB65-RCC (kidney, adherent): the AUC stood at 0.982 and the negative logarithm of the IC50 (pIC50) is less than 5.10.
Taken in the same sequence, the figures for C2BBe1 (large intestine, adherent) were 0.985 and less than 5.10.
Taken in the same sequence, the figures for CL-11 (large intestine, adherent) were 0.983 and less than 5.10.
Consider IST-MES1 (mesothelioma, adherent), for which the AUC came out at 0.877 and the pIC50 is less than 5.10.
On the same counts, the results for LB2241-RCC (kidney, adherent) are 0.842 and 5.18.
On the same counts, the results for LS-123 (large intestine, adherent) are 0.883 and less than 5.10.
In the case of NCI-H716 (large intestine, suspension), the AUC is 0.824 and the pIC50 was 5.19.
On the same counts, the results for NTERA-2 cl.D1 (testis, adherent) are 0.807 and 5.39.
On the same counts, the results for “PL-21 (acute myeloid leukaemia, suspension)” are 0.848 and 5.12.
On to SK-N-DZ (neuroblastoma, adherent), for which the AUC was determined as 0.851 and the negative-log IC50 (pIC50) was 5.22.
Taken in the same sequence, the figures for SW872 (soft tissue, adherent) were 0.879 and 5.17.
Taken in the same sequence, the figures for no-10 (glioma, adherent) were 0.806 and 5.28.

Compound in a further test: Cc1cccc(-c2[nH]c(C(C)(C)C)nc2-c2ccc3nccnc3c2)n1 [SB-525334]
Described as above. The conditions noted are these: top dose 20 µM; top dose inferred. How it is done:
as §1
As to BB65-RCC (kidney, adherent), the AUC is 0.968 and the pIC50 is less than 4.70.
For the cell line C2BBe1 (large intestine, adherent), the AUC turned out to be 0.839 and the negative logarithm of the IC50 (pIC50) was 4.79.
Taken in the same sequence, the figures for CL-11 (large intestine, adherent) were 0.982 and less than 4.70.
On the same counts, the results for IST-MES1 (mesothelioma, adherent) are 0.958 and less than 4.70.
On the same counts, the results for LB2241-RCC (kidney, adherent) are 0.982 and less than 4.70.
Consider LS-123 (large intestine, adherent), for which the AUC amounted to 0.959 and the pIC50 is less than 4.70.
Taken in the same sequence, the figures for NCI-H716 (large intestine, suspension) were 0.96 and less than 4.70.
Taken in the same sequence, the figures for NTERA-2 cl.D1 (testis, adherent) were 0.878 and 4.70.
For “PL-21 (acute myeloid leukaemia, suspension)”, the AUC worked out at 0.979 and the negative logarithm of the IC50 (pIC50) is less than 4.70.
Taken in the same sequence, the figures for SK-N-DZ (neuroblastoma, adherent) were 0.836 and 4.89.
As for SW872 (soft tissue, adherent), the AUC was determined as 0.971 and the pIC50 is less than 4.70.
Take no-10 (glioma, adherent): the AUC was determined as 0.98 and the pIC50 was less than 4.70.

Compound in a further test: NC(=O)c1ccc(N(C(N)=O)c2c(F)cccc2F)nc1-c1ccc(F)cc1F [VX-702]
The test is described as above. The conditions noted are these: top dose 2 µM; top dose inferred. How it is done: as §1
For BB65-RCC (kidney, adherent), the AUC amounted to 0.955 and the negative-log IC50 (pIC50) is less than 5.70.
C2BBe1 (large intestine, adherent): the AUC came to 0.972 and the pIC50 was less than 5.70.
Taken in the same sequence, the figures for CL-11 (large intestine, adherent) were 0.956 and less than 5.70.
Taken in the same sequence, the figures for LB2241-RCC (kidney, adherent) were 0.974 and less than 5.70.
With LS-123 (large intestine, adherent), the AUC worked out at 0.953 and the negative logarithm of the IC50 (pIC50) was less than 5.70.
In the case of NCI-H716 (large intestine, suspension), the AUC was found to be 0.672 and the pIC50 was 6.37.
Taken in the same sequence, the figures for NTERA-2 cl.D1 (testis, adherent) were 0.985 and less than 5.70.
Turning to “PL-21 (acute myeloid leukaemia, suspension)”, the AUC was determined as 0.966 and the pIC50 was less than 5.70.
Taken in the same sequence, the figures for SK-N-DZ (neuroblastoma, adherent) were 0.972 and less than 5.70.
Taken in the same sequence, the figures for no-10 (glioma, adherent) were 0.98 and less than 5.70.

Compound in another test: Cc1cc(N2CCOCC2)cc2[nH]c(-c3c(NC[C@@H](O)c4cccc(Cl)c4)cc[nH]c3=O)nc12 [BMS-536924]
The test is described as above. As to conditions: top dose 4 µM; screen: GDSC drug entry 1091; top dose inferred. The protocol:
as §1
Turning to BB65-RCC (kidney, adherent), the AUC worked out at 0.924 and the pIC50 was less than 5.40.
In the case of C2BBe1 (large intestine, adherent), the AUC turned out to be 0.915 and the negative-log IC50 (pIC50) is less than 5.40.
With CL-11 (large intestine, adherent), the AUC amounted to 0.849 and the pIC50 is 5.44.
Taken in the same sequence, the figures for IST-MES1 (mesothelioma, adherent) were 0.899 and less than 5.40.
Taken in the same sequence, the figures for LB2241-RCC (kidney, adherent) were 0.804 and 5.64.
Taken in the same sequence, the figures for LS-123 (large intestine, adherent) were 0.979 and less than 5.40.
With NCI-H716 (large intestine, suspension), the AUC is 0.57 and the negative logarithm of the IC50 (pIC50) was 6.39.
On the same counts, the results for NTERA-2 cl.D1 (testis, adherent) are 0.687 and 6.08.
Turning to “PL-21 (acute myeloid leukaemia, suspension)”, the AUC is 0.872 and the negative-log IC50 (pIC50) is less than 5.40.
On the same counts, the results for SK-N-DZ (neuroblastoma, adherent) are 0.837 and 5.58.
Turning to SW872 (soft tissue, adherent), the AUC is 0.879 and the pIC50 was 5.46.
Take no-10 (glioma, adherent): the AUC was found to be 0.981 and the negative logarithm of the IC50 (pIC50) is less than 5.40.

The same test, now with this note: top dose 5.12 µM; screen: GDSC drug entry 62.
Regarding BB65-RCC (kidney, adherent), the AUC worked out at 0.865 and the pIC50 was less than 5.29.
Taken in the same sequence, the figures for C2BBe1 (large intestine, adherent) were 0.819 and 5.46.
Take CL-11 (large intestine, adherent): the AUC worked out at 0.948 and the pIC50 is less than 5.29.
On the same counts, the results for IST-MES1 (mesothelioma, adherent) are 0.644 and 6.09.
For LB2241-RCC (kidney, adherent), the AUC turned out to be 0.968 and the pIC50 is less than 5.29.
On the same counts, the results for LS-123 (large intestine, adherent) are 0.882 and less than 5.29.
With NCI-H716 (large intestine, suspension), the AUC was found to be 0.879 and the pIC50 was less than 5.29.
Take NTERA-2 cl.D1 (testis, adherent): the AUC is 0.416 and the negative logarithm of the IC50 (pIC50) is 6.72.
On to “PL-21 (acute myeloid leukaemia, suspension)”, for which the AUC is 0.502 and the pIC50 is 6.49.
On the same counts, the results for SK-N-DZ (neuroblastoma, adherent) are 0.772 and 5.71.
On the same counts, the results for SW872 (soft tissue, adherent) are 0.795 and 5.67.
On the same counts, the results for no-10 (glioma, adherent) are 0.818 and 5.42.

These data come from the supplement of paper PMC4967469.
